Laboratory results published in EP0949243A1, “OPTICALLY ACTIVE METHOXYIMINOACETAMIDE DERIVATIVES, PROCESS FOR THE PREPARATION OF THEM, INTERMEDIATES THEREFOR, AND PESTICIDES CONTAINING THEM AS THE ACTIVE INGREDIENT” (MITSUBISHI CHEMICAL CORPORATION, priority 1996, dated 1998).

Columns and labels:
[1] = test system: green peach aphid; settings: in vivo
[2] = test system: two-spotted spider mite; assay: Acaricidal effect against two-spotted spider mite (Test Example 10); assay type: in vivo; settings: female adults on kidney bean leaf disks, sprayed, 2 days at 25 ± 1°C; mixtures 1:1
Text: A leaf disk of 2 cm in diameter was cut off using a leaf punch from the first leaf of a kidney bean (variety: Kintoki) raised in a pot of 15 cm in diameter, and each of 8 leaf disks thus prepared was arranged on wet absorbent cotton which was put on a plastic cup of 8 cm in diameter. A total of 5 female adults of two-spotted spider mite were inoculated on each leaf disk.

[3] = test system: CD rats (female); assay: Oral acute toxicity test using rats (Test Example 3); settings: single oral dosage of 300, 600, 1,200, 2,500 or 5,000 mg/kg
[4] = test system: diamond back moth; assay: Insecticidal effect against diamond back moth (Test Example 11); assay type: in vivo; settings: second instar larvae, cabbage leaf soaked, after 4 days at 25°C; mixtures 1:1
Procedure: After thoroughly air-drying the chemical solution on the leaf surface, the leaf was put into a round cup (8 cm in diameter) (one leaf piece/round cup) together with five second instar larvae of diamond back moth and then kept in a constant temperature room of 25°C.
The evaluation was made by examining the number of live larvae, larvae in agony and dead larvae after 4 days of the treatment and calculating their death rate in the same manner as described in Test Example 9.

Row | Compound | LC50 value (ppm) [1] [ppm] | LC50 value (ppm) [2] [ppm] | LC50 value (ppm) [4] [ppm] | also measured
1 | O=[N+]([O-])NC1=NCCN1Cc1ccc(Cl)nc1 [Known compound l, 1-(6-chloro-3-pyridylmethyl)-N-nitroimidazolidin-2-ylideneamine] | 0.23 | – | – | –
2 | CCOCn1c(-c2ccc(Cl)cc2)c(C#N)c(Br)c1C(F)(F)F [Known compound m, 4-bromo-2-(4-chlorophenyl)-1-ethoxymethyl-5-trifluoromethylpyrrole-3-carbonitrile] | – | 3.0 | – | –
3 | OC(c1ccc(Cl)cc1)(c1ccc(Cl)cc1)C(Cl)(Cl)Cl [Known compound n, 2,2,2-trichloro-1,1-bis(4-chlorophenyl)ethanol] | – | 19.0 | – | –
4 | CNC(=O)C(=NOC)c1ccccc1C=NO[C@@H](C)c1cccc(C(F)(F)F)c1 (single isomer, unassigned) [compound 2] | 450 | 1900 | 260 | mortality [3]: no mortality
5 | CCc1nn(C)c(C(=O)NCc2ccc(C(C)(C)C)cc2)c1Cl [Known compound k, N-(4-tert-butylbenzyl)-4-chloro-3-ethyl-1-methylpyrazole-5-carboxamide] | 20.0 | – | – | –
6 | CCc1ccc(C(=O)NN(C(=O)c2cc(C)cc(C)c2)C(C)(C)C)cc1 [Known compound h, N-tert-butyl-N'-(4-ethylbenzoyl)-3,5-dimethylbenzohydrazide] | – | – | 23.0 | –
7 | O=C(NC(=O)c1c(F)cccc1F)Nc1cc(Cl)c(F)c(Cl)c1F [Known compound g, 1-(3,5-dichloro-2,4-difluorophenyl)-3-(2,6-difluorobenzoyl)urea] | – | – | 0.29 | –
8 | Cc1ccc2nc3sc(=O)sc3nc2c1 [Known compound p, 6-methylquinoxaline-2,3-dithiocarbonate] | – | 89.0 | – | –
